IC50 is the fitted dose that halves viability relative to control wells, and lower means more sensitive; a fit beyond the top or the lowest dose is shown as a bound at that dose. AUC, from the same fit, is the share of area under the viability curve across the 256-fold dose range: 1 means no effect, lower means more sensitive. Where the top dose is marked as inferred, it is not printed in the source and was worked back from the curve model.
How the values were obtained:
Assay in all cases: Viability of human cancer cell lines after 72 h of drug (GDSC screen)
[1] = compound: COc1cc(N2CCN(C)CC2)ccc1Nc1nc(N)c(C(=O)c2c(Cl)cccc2Cl)s1 [XMD14-99]; settings: top dose 10.24 µM; top dose inferred
Method: (§1)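 Human cancer cell lines in 384-well plates, medium with 10% serum, drug for 72 h over a 256-fold dose range (nine 2-fold or five 4-fold steps up to the top dose). Adherent lines were fixed and stained with the nucleic acid dye Syto60, suspension lines read with resazurin; signal relative to control wells, capped at 0 and 100%. One two-parameter sigmoid per drug and line, fitted in a mixed model over all curves with the slope shared within a line.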

[2] = compound: Cc1cc([N+](=O)[O-])ccc1NS(=O)(=O)c1cc(Cl)ccc1Cl [FH535]; settings: top dose 32 µM; top dose inferred
Method: as §1

[3] = compound: O=C(NC1CCNCC1)c1n[nH]cc1NC(=O)c1c(Cl)cccc1Cl [AT-7519]; settings: top dose 10.24 µM; top dose inferred
Method: as §1

Cell Line | AUC [1] | IC50 [1] [µM] | AUC [2] | IC50 [2] [µM] | AUC [3] | IC50 [3] [µM]
HCC70 (breast, adherent) | 0.985 | > 10.2 | 0.659 | 5.48 | 0.356 | 0.257
SISO (cervix, adherent) | 0.987 | > 10.2 | 0.531 | 2.42 | 0.785 | 4.19
KP-3 (pancreas, adherent) | 0.973 | > 10.2 | 0.647 | 5.53 | 0.613 | 1.4
JHU-022 (head and neck, adherent) | 0.982 | > 10.2 | 0.931 | > 32 | 0.892 | > 10.2
MEL-JUSO (melanoma, adherent) | 0.959 | > 10.2 | 0.682 | 6.87 | 0.499 | 0.636
KYSE-140 (oesophagus, adherent) | 0.984 | > 10.2 | 0.654 | 5.67 | 0.463 | 0.499
NCI-H838 (lung adenocarcinoma, adherent) | 0.987 | > 10.2 | 0.733 | 9.56 | 0.754 | 3.57
SW1417 (large intestine, adherent) | 0.982 | > 10.2 | 0.76 | 13.1 | 0.954 | > 10.2
T84 (large intestine, adherent) | 0.97 | > 10.2 | 0.655 | 5.43 | 0.949 | > 10.2
TOV-112D (ovary, adherent) | 0.959 | > 10.2 | 0.507 | 2.09 | 0.443 | 0.446
COLO-678 (large intestine, semi-adherent) | 0.982 | > 10.2 | 0.73 | 11.1 | 0.911 | > 10.2
CAL-51 (breast, adherent) | 0.985 | > 10.2 | 0.587 | 3.35 | 0.968 | > 10.2
LNZTA3WT4 (glioma, adherent) | 0.987 | > 10.2 | 0.446 | 1.43 | 0.962 | > 10.2
OE21 (oesophagus, adherent) | 0.978 | > 10.2 | 0.659 | 6.55 | 0.807 | 7.86
OVMIU (ovary, adherent) | 0.978 | > 10.2 | 0.678 | 7.15 | 0.447 | 0.444
HCC-827 (lung adenocarcinoma, adherent) | 0.982 | > 10.2 | 0.55 | 2.79 | 0.726 | 3.14
HeLa (cervix, adherent) | 0.984 | > 10.2 | 0.493 | 1.92 | 0.891 | > 10.2
SW1990 (pancreas, adherent) | 0.981 | > 10.2 | 0.654 | 5.77 | 0.881 | > 10.2
BPH-1 (prostate, adherent) | 0.936 | > 10.2 | 0.792 | 16.2 | 0.257 | 0.119
HuP-T4 (pancreas, adherent) | 0.931 | > 10.2 | 0.421 | 1.2 | 0.354 | 0.246

Cell Line | AUC [1] | IC50 [1] [µM] | AUC [2] | IC50 [2] [µM] | AUC [3] | IC50 [3] [µM]
huH-1 (liver, adherent) | 0.974 | > 10.2 | 0.522 | 2.33 | 0.976 | > 10.2
G-361 (melanoma, adherent) | 0.953 | > 10.2 | 0.494 | 1.93 | 0.831 | 6.11
HCC1806 (breast, adherent) | 0.977 | > 10.2 | 0.841 | 19.6 | 0.567 | 0.959
NCI-H196 (small cell lung carcinoma, adherent) | 0.971 | > 10.2 | 0.93 | > 32 | 0.892 | > 10.2
PANC-10-05 (pancreas, adherent) | 0.982 | > 10.2 | 0.613 | 4.47 | 0.562 | 0.995
DMS-53 (small cell lung carcinoma, adherent) | 0.979 | > 10.2 | 0.302 | 0.532 | 0.988 | > 10.2
SW620 (large intestine, adherent) | 0.939 | > 10.2 | 0.614 |  | 0.495 | 0.623
CHSA0011 (chondrosarcoma, adherent) | 0.971 | > 10.2 | 0.905 | > 32 | 0.624 | 1.62
OVISE (ovary, adherent) | 0.981 | > 10.2 | 0.671 | 7.08 | 0.594 | 1.26
NCI-H1299 (large cell lung carcinoma, adherent) | 0.982 | > 10.2 | 0.553 | 2.88 | 0.896 | > 10.2
Ca-Ski (cervix, adherent) | 0.959 | > 10.2 | 0.764 | 13 | 0.369 | 0.265
OVCAR-3 (ovary, adherent) | 0.987 | > 10.2 | 0.666 | 6.1 | 0.983 | > 10.2
TMK-1 (stomach, adherent) | 0.98 | > 10.2 | 0.496 | 1.95 | 0.695 | 2.35
ML-1 (thyroid, adherent) | 0.984 | > 10.2 | 0.535 | 2.54 | 0.811 | 6.59
HPAF-II (pancreas, adherent) | 0.981 | > 10.2 | 0.7 | 8.81 | 0.674 | 2.28
H2795 (mesothelioma, adherent) | 0.961 | > 10.2 | 0.43 | 1.29 | 0.787 | 4.38
CAPAN-1 (pancreas, adherent) | 0.987 | > 10.2 | 0.515 | 2.21 | 0.729 | 3.13
OSC-20 (head and neck, adherent) | 0.971 | > 10.2 | 0.557 | 2.95 | 0.762 | 4.32
HLE (liver, adherent) | 0.985 | > 10.2 | 0.532 | 2.43 | 0.834 | 6.14
NCI-H1915 (large cell lung carcinoma, adherent) | 0.962 | > 10.2 | 0.583 | 3.38 | 0.646 | 1.64

Cell Line | AUC [1] | IC50 [1] [µM] | AUC [2] | IC50 [2] [µM] | AUC [3] | IC50 [3] [µM]
SCC-4 (head and neck, adherent) | 0.984 | > 10.2 | 0.741 | 11.3 | 0.826 | 7.81
SUIT-2 (pancreas, adherent) | 0.945 | > 10.2 | 0.565 | 3.03 | 0.867 | 9.99
MES-SA (uterus, adherent) | 0.992 | > 10.2 | 0.707 | 6.89 | 0.855 | 6.31
EGI-1 (biliary tract, adherent) | 0.977 | > 10.2 | 0.744 | 12.6 | 0.644 | 1.81
WM793B (melanoma, adherent) | 0.971 | > 10.2 | 0.705 | 8.08 | 0.498 | 0.633
G-MEL (melanoma, adherent) | 0.965 | > 10.2 | 0.869 | 28.8 | 0.695 | 2.23
KYSE-410 (oesophagus, adherent) | 0.981 | > 10.2 | 0.672 | 6.23 | 0.691 | 2.29
BICR31 (head and neck, adherent) | 0.988 | > 10.2 | 0.659 | 5.57 | 0.788 | 4.55
SW756 (cervix, adherent) | 0.983 | > 10.2 | 0.585 | 3.58 | 0.984 | > 10.2
KYSE-150 (oesophagus, adherent) | 0.987 | > 10.2 | 0.634 | 4.6 | 0.846 | 7.04
HCC1143 (breast, adherent) | 0.98 | > 10.2 | 0.457 | 1.46 | 0.687 | 2.65
NCI-H2009 (lung adenocarcinoma, adherent) | 0.986 | > 10.2 | 0.505 | 2.07 | 0.986 | > 10.2
FADU (head and neck, adherent) | 0.988 | > 10.2 | 0.541 | 2.58 | 0.818 | 5.51
HuCCT1 (biliary tract, adherent) | 0.96 | > 10.2 | 0.706 | 8.24 | 0.55 | 0.89
PCI-38 (head and neck, adherent) | 0.984 | > 10.2 | 0.83 | 20.2 | 0.52 | 0.727
LU-99A (large cell lung carcinoma, adherent) | 0.985 | > 10.2 | 0.436 | 1.34 | 0.896 | > 10.2
DU-145 (prostate, adherent) | 0.985 | > 10.2 | 0.619 | 4.43 | 0.958 | > 10.2
KMH-2 (thyroid, adherent) | 0.988 | > 10.2 | 0.532 | 2.42 | 0.677 | 1.88
T-T (oesophagus, adherent) | 0.972 | > 10.2 | 0.56 | 2.91 | 0.867 | 9.16
